# Results as given in PubChem BioAssay AID662 (National Center for Advancing Translational Sciences (NCATS), 2007).
# Out of some 71,000 compounds screened, about 1,800 (2.5%) were called active. Inconclusive means that the source gave no clear call. Such entries were picked first, then a sample of the others. Calls follow the shape of the dose curve; as a rule, active = well fitted activation curve with a large enough effect in the signal ratio, with a control signal flat (not every such curve was filed as active); inconclusive = small, poorly fitted or top-dose-only effect, or effect the other way, or a change in a side signal; inactive = flat fitted curve, though single readings scatter; the % refers to the signal ratio. Potencies of inconclusive entries are doubtful fits and often do not repeat.
# Test: Cell signaling CRE-BLA (Fsk stim); as to activity change, negative = inhibition: % of control where 0% means no effect
# Conditions: CHO CRE-bla reporter (cAMP response element driving beta-lactamase), forskolin EC10, beta-lactamase ratio; activity change, negative = inhibition: at 38.2 µM (top of the series) unless noted
# Procedure, shortened: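 The 460nm/530nm emission ratio after CCF4 loading defined %Activity, from which AC50 values were obtained. CRE-bla CHO cells received compound dilution series together with an EC10 level of NKH 477 for 3 hours at 37 degrees Celsius.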
# Potency is read from the fitted curve at half-maximal effect; tags tell the direction and shape of the fitted curve.
Compound,Potency,"activity change, negative = inhibition"
c1ccc(-c2oc3ncnc(NCCCN4CCOCC4)c3c2-c2ccccc2)cc1,active: 2.51 µM,
COC(=O)C1=C(C)N(c2cccc3ccccc23)C(=O)C1,"inconclusive: 20 µM [falling, partial curve]",
C=C/C(C)=C/[C@]1(C)SC(=O)C(C)=C1O,,inactive: -0.164%
CCOc1ccccc1C(=O)NC(C)c1ccc2c(c1)OCO2 (stereo not drawn),"inconclusive: 0.0794 µM [rising, partial curve]",
COc1ccc(-c2nc3cnc(Oc4cccc(Cl)c4)nc3n(CCC#N)c2=O)cc1,,inconclusive: -9.74% [fluorescent]
Cc1ccc2cc(CN(Cc3cccs3)C(=O)c3ccco3)c3nnnn3c2c1C,active: 3.16 µM,
O=C(c1ccc(C23CC4CC(CC(C4)C2)C3)o1)N1CCOCC1,"inconclusive: 7.94 µM [rising, partial curve]",
C=CCN1CCN(C(c2ccccc2)c2nnnn2CCC(C)C)CC1 (stereo not drawn),,inactive: -1.53%
C=C(C)Cn1c(CCNC(=O)CCC)nc2ccccc21,,inconclusive: 0.816%
CCOCC(=O)Nc1nc2ccc(OC)cc2s1,,inactive: 4.16%
O=C(COC(=O)c1ccc(S(=O)(=O)N2CCOCC2)cc1)Nc1nc(-c2ccccc2)cs1,,inactive: -1.93%
CC(C)(C)NCC(O)COc1ccccc1C(C)(C)C (stereo not drawn),,inactive: -2.74%
O=C(Nc1ccc2nn(-c3ccccc3)nc2c1)c1cccs1,,inactive: 11.9%
O=C(COC(=O)c1cccc(NC(=O)c2ccco2)c1)c1ccc(Br)cc1,"inconclusive: 5.01 µM [falling, partial curve, poor fit]",
Nc1[nH]c(=S)[nH]c(=O)c1N=Nc1c(Br)cc(S(N)(=O)=O)cc1Br,,inactive: 8.63% [at 7.6 µM]
CCc1ccc(C(=O)COC(=O)CNC(=O)c2ccco2)cc1,,inconclusive: 14% [at 7.6 µM]
COc1cccc(/C=N/n2c(C)nc3ccccc32)c1OC,,inactive: -14.9%
Cn1cnc2c(sc3nc(N4CCOCC4)c4c(c32)CC(C)(C)OC4)c1=O,"inconclusive: 10 µM [rising, partial curve]",
FC(F)(F)c1nnc2ccc(-n3ccnc3)nn12,,inactive: 8.38%
COc1cc(OC)c(S(=O)(=O)N2CCCCC2)cc1S(=O)(=O)N1CCCCC1,,inactive: -4.67%
Cc1noc(C)c1C(=O)Nc1nnc(-c2ccccc2)s1,,inconclusive: 12.7%
Nc1ccc(-c2nc3c(Cl)c(N)ccc3[nH]2)cc1,"inconclusive: 1.26 µM [rising, full curve, poor fit]",
O=S(=O)(c1ccc2nc(-c3ccco3)c(-c3ccco3)nc2c1)N1CCOCC1,"inconclusive: 20 µM [rising, single point]",
